# Assay results reported in publication PMC4336329 (PLoS ONE, 2015).
# Hit rate of the full screen: of about 310,000 compounds, about 2,200 (0.71%) showed an effect of 50% or more. Effects have a minus sign here. Some of the results follow.
# Molecular target: human ether-à-go-go-related gene (hERG) potassium channel (human, UniProt Q12809)
# Assay: primary screen, population patch clamp on CHO cells stably expressing hERG
# Chain of human ether-à-go-go-related gene (hERG) potassium channel (Q12809 whole entry, looked up): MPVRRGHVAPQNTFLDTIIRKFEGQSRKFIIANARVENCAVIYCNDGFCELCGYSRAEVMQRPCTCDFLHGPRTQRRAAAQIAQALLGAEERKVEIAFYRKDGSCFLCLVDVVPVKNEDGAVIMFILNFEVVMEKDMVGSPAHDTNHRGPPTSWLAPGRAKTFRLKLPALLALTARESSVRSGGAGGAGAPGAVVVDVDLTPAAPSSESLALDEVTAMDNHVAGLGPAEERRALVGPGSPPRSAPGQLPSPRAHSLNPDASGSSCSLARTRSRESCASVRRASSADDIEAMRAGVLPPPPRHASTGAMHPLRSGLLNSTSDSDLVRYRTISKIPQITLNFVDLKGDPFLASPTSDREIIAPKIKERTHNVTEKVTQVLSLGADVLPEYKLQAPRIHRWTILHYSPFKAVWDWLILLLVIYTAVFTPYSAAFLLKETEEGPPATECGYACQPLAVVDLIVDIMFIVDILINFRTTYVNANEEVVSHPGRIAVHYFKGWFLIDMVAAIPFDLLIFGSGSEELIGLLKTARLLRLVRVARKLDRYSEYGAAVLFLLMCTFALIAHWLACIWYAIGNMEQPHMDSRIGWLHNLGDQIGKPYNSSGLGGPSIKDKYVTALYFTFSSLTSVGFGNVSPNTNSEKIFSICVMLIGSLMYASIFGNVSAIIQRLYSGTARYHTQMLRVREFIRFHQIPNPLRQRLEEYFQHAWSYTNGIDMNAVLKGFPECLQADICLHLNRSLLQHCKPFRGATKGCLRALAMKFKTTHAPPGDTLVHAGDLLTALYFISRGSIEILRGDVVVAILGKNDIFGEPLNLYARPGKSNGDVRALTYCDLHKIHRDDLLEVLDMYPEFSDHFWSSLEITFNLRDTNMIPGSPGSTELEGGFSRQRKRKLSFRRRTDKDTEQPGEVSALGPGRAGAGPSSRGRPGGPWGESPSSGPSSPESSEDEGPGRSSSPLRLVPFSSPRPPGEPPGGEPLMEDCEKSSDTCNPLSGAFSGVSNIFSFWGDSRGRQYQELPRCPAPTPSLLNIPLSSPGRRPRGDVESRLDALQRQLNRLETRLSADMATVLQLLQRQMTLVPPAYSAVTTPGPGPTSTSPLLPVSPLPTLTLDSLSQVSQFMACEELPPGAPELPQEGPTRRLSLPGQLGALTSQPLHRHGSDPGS
row,SMILES,"hERG current change (%, negative = inhibition) at 1uM [%]"
1,O=P(O)(C(O)c1ccccc1)C(O)c1ccccc1 (stereo not drawn),12.4
2,Cc1cc2cc(CNC(=O)c3ccc(S(=O)(=O)N4CCOCC4)cc3)ccc2[nH]1,5.8
3,COc1cccc(NC(=O)COC(=O)CC(NC(N)=O)c2ccc(Cl)cc2)c1 (stereo not drawn),5.86
4,CCOc1ccc(Oc2cc(C)nc(SC)n2)nn1,9.29
5,COc1ccc(CC(=O)NCc2n[nH]c(=S)n2C)cc1,7.17
6,COc1ccc(NC(=O)CN(C)C(=O)c2ccc(N3CCCC3)c([N+](=O)[O-])c2)cc1,-20
7,Cc1cc(-c2cccc(Br)c2)c(C#N)c(N)n1,15.7
8,COc1ccc(OC)c(NC(=O)C2C3C=CC(C3)C2C(=O)NCc2ccccn2)c1 (stereo not drawn),15.7
9,CC(=O)c1sc(NC(=O)c2cc(S(=O)(=O)N3CCOCC3)ccc2F)nc1C,9.09
10,CC(C)(C)NC(=O)Cn1c(=O)c(=O)n(Cc2ccccc2)c2ccc(Cl)cc21,7.81
11,CC(=O)c1ccc(N2CCN(CC(=O)Nc3ccc4c(c3)OCCO4)CC2)cc1,2.42
12,COc1ccc(C(N)=O)c(OCC(=O)Nc2cc(C)on2)c1,5.35
13,O=C(/C=C/Nc1ccc(F)cc1)c1cccs1,14.2
14,COc1ccc2c(C(=O)CN3CCN(c4ccccc4)CC3)c[nH]c2c1,-14.4
15,COc1ccc(CCNC(=O)C2CCCN2C(=O)Nc2ccc(C)cc2)cc1OC (stereo not drawn),8.53
16,O=C(OCCCOC(=O)c1ccc(Br)o1)c1ccc(Br)o1,-3.62
17,O=S(=O)(NCCN1CCCC1)c1ccc(Cl)cc1,11.6
18,COc1ccccc1OCC(=O)N/N=C1/SCC(=O)N1Cc1ccccc1,6.48
19,Cc1nc(N)[nH]c(=O)c1Oc1cccc(C(F)(F)F)c1,8.98
20,COc1ccc(Cl)cc1NC(=O)CN(C)C(=O)CSc1ccc2c(c1)OCCO2,6.73
21,CCOc1nc(C)ccc1-c1noc(-c2ccccn2)n1,2.91
22,CC(C)[N+]12CCC(CC1)C(C(O)(c1ccccc1)c1ccccc1)C2.[I-] (stereo not drawn),15.7
23,COC(=O)c1cccc(CSC(=S)N2CCCC2)c1,7.05

row,SMILES,"hERG current change (%, negative = inhibition) at 1uM [%]"
1,Cc1ccc(NCCC(=O)c2ccc(Cl)c(Cl)c2)cc1,5.27
2,O=C(COc1ccc([N+](=O)[O-])cc1)NCCc1nc2ccccc2[nH]1,-5.14
3,Nc1ccc2nc3c(=O)n(CCc4ccccc4)c(=O)[nH]c3nc2c1,8.93
4,Cc1c(NC(=O)C2CCCO2)cccc1[N+](=O)[O-] (stereo not drawn),13.1
5,Cc1ccc(-n2c(C)nn(CC#N)c2=O)cc1,15.4
6,O=C(COC(=O)CCC1CCCC1)NCc1ccc(Cl)cc1,13.7
7,Cc1ccc(SCC(=O)NNC(=O)C2CCCCC2)cc1,0.591
8,Cn1c(=O)c2cc(S(=O)(=O)N3CCC(c4ccccc4)CC3)ccc2n(C)c1=O,5.82
9,O=c1cnnc(Nc2cccc(F)c2)[nH]1,17.8
10,CC(C)(C)CN1CCNC(=O)C1CC(=O)NC1Cc2ccccc2C1 (stereo not drawn),9.84
11,COc1cccc(CC(=O)OCC(=O)NC2(C#N)CCCCC2)c1,14.8
12,N=c1c2c3c(sc2ncn1N)CCCCC3,1.16
13,CCN(CC)CCN(C(=O)c1cc2c(ccc3ccccc32)oc1=O)c1nc2cc3c(cc2s1)OCCO3.Cl,10.9
14,Cc1ccc(S(=O)(=O)Nc2c(C)nc3nc(C)[nH]n3c2=O)cc1,19
15,Nc1ccccc1C(=O)Nc1ccc(Cl)cc1Cl,20
16,COC(=O)c1ccccc1NC(=O)c1cc([N+](=O)[O-])nn1Cc1ccccc1,5.08
17,COc1cc(/C=N/NC(=S)NC(C)C)ccc1OCC(=O)Nc1c(C)cc(C)cc1C,9.99
18,Cc1ccccc1OCC(=O)N(Cc1nnc(-c2ccc(Cl)cc2)o1)C(C)C,-6.18
19,CCC1(c2ccccc2)NC(=O)N(Cc2cccc([N+](=O)[O-])c2)C1=O (stereo not drawn),0.113
20,COCCCN1C(=O)c2ccc(C(=O)Nc3ccc(C)cc3C)cc2C1=O,10.1
21,CC(=O)C1C(=O)c2c(cccc2[N+](=O)[O-])C1=Nc1cccc(Cl)c1 (stereo not drawn),9.7
22,Oc1ccccc1-c1csc(-c2ccccc2)n1,9.18
23,CS(=O)(=O)c1sc(C#N)c2c1C(=O)CC(c1ccccc1)C2 (stereo not drawn),12.7

row,SMILES,"hERG current change (%, negative = inhibition) at 1uM [%]"
1,C[C@H](NC(=O)c1nc[nH]c1C(=O)N1CCN(c2ccccc2)CC1)C(=O)OCc1ccccc1,10.1
2,O=C(CCn1c(=O)c2cccn2c2ccccc21)Nc1ccc(F)cc1,-5.92
3,CC/C(=N\N1CCN(C)CC1)c1c(O)[nH]c(=O)[nH]c1=O,13.5
4,COc1cc(NC(=O)C2=C(C)OCCS2)c(Cl)cc1C(=O)NCCN(C)C,8.31
5,Brc1cccc(-c2nnc3sc(CNCc4ccco4)cn23)c1,-32.9
6,COc1ccc(C(CNC(=O)c2cc3c(s2)CCC(C)C3)N2CCCC2)cc1 (stereo not drawn),6.06
7,O=C(O)C1C2C=CC(C3CC23)C1C(=O)NCCc1ccccc1 (stereo not drawn),9.67
8,COc1ccccc1C(=O)Nc1ccnn1C1CCN(Cc2ccccc2OCCO)CC1,-79.5
9,CCc1ccccc1NC(=O)CSc1ncn[nH]1,13.5
10,COc1ccc(CC(C(=O)Nc2ccc(OC)cc2)c2nn[nH]n2)cc1 (stereo not drawn),15.3
11,COc1ccc(NC(=O)c2cc(-c3ccccc3)nc3c2cnn3C(C)C)c(OC)c1,6.41
12,COC(=O)c1ccc(COC(=O)C2CCN(S(=O)(=O)c3c(Cl)cccc3Cl)CC2)o1,-6.14
13,CC(=O)Nc1ccc(S(=O)(=O)NCC2CCC(C(=O)NCCCN3CCCC3=O)CC2)cc1 (stereo not drawn),-3.27
14,Cc1cccc2c1NC(=O)C2(O)N1CCCC(C)C1 (stereo not drawn),14.1
15,Cc1ccc(CNS(=O)(=O)c2ccc(C)s2)cc1,11.2
16,COCCN(CC(=O)Nc1ccccc1C(F)(F)F)C(=O)c1ccc(-n2cccn2)cc1,7.18
17,CC1CCN(C(=O)Cn2nnc(-c3cccs3)n2)CC1,9.91
18,COc1ccc(CCNC(=O)C2CC3Cn4c(nc5ccccc54)C3N2C)cc1 (stereo not drawn),3.21
19,O=C(N/N=C/c1ccc(Cl)cc1Cl)c1ccncc1,9.01
20,Cc1ccccc1NS(=O)(=O)c1ccc(C(=O)NN2CCCCC2)cc1,14.4
21,Cc1ccccc1Cn1c(=O)n(CCCC(=O)NCc2ccco2)c(=O)c2sccc21,10.1
22,Cn1c(=O)c(NCCO)c2c3c(cccc31)C(=O)c1ccccc1-2,4.69
23,CC(C)c1cc(NC(=O)c2ccccc2)cc(C(C)C)c1O,7.77

row,SMILES,"hERG current change (%, negative = inhibition) at 1uM [%]"
1,O=C(Nc1nccs1)c1ccc(-c2ccccc2[N+](=O)[O-])o1,11.3
2,Cc1ccc(S(=O)(=O)NCCC(=O)NCc2ccco2)cc1,2.75
3,Cc1cccc(CS(=O)(=O)Cc2ccc(C(=O)N3CCC4(CC3)OCCO4)o2)c1,10
4,C=CCOc1ccc(/C=C2/C(=N)N3N=C(CC(=O)N4CCCC4)SC3=NC2=O)cc1OC,23.9
5,COc1ccccc1NC(=O)c1ccc(Cl)c(S(=O)(=O)N2CCCCC2)c1,18.3
6,CCOC(=O)C(C)Sc1nnc(Cc2cc(=O)[nH]c(=O)[nH]2)n1-c1ccc(OCC)cc1 (stereo not drawn),1.26
7,COc1ccc(C(=O)OCC(=O)Nc2ccc3[nH]c(=O)[nH]c3c2)c(OC)c1OC,8.31
8,Cc1ccccc1NC(=O)NC1(C(=O)N2CCC(O)CC2)CCCCC1,15.4
9,CC1CCN(Cc2c(C(=O)N/N=C/c3cc(Cl)ccc3O)nnn2-c2nonc2N)CC1,19.1
10,CC1CCN(C(=O)CSc2nnc(CNC(=O)c3ccco3)o2)CC1,16.4
11,COc1ccc(C(O)c2ncc(C(F)(F)F)cc2Cl)cc1 (stereo not drawn),18
12,C/C(=N\NC(=O)C12CCC(C)(C(=O)O1)C2(C)C)c1ccccc1O (stereo not drawn),-37.8
13,CS(=O)(=O)N1CCN(C(=O)c2cccnc2)CC1,18.9
14,Cc1ccc(S(=O)(=O)N2CCCCC2)cc1NC(=O)C1CC(=O)N(Cc2ccco2)C1 (stereo not drawn),10.2
15,Cc1[nH]c2ccccc2c1C(=O)C(=O)NCCCc1ccccc1,11.6
16,CCn1c(P(C)(=O)[O-])nc2cc(NC(=O)c3ccccc3Cl)ccc21.[K+],-1.28
17,COCC1COS(=O)(=O)NC1(C)C (stereo not drawn),9.55
18,O=C1c2ccccc2C(=O)N1c1nc2nccc(-c3ccccc3)n2n1,8.74
19,CCOC(=O)/C(C#N)=C/Nc1ccccc1OC,5.72
20,NS(=O)(=O)c1cccc(NC(=O)COC(=O)C2(c3cccc(F)c3)CCCC2)c1,11.3
21,Cc1ccc(NC(=O)C2CC(=O)N(CCc3ccccc3)C2)cc1Cl (stereo not drawn),11
